Measurements published in PMC3750045, “Human RNase H1 Is Associated with Protein P32 and Is Involved in Mitochondrial Pre-rRNA Processing” (PLoS ONE, 2013).
No constants are given. Whether binding was seen depends on the method and setting. For part of these data: Binding seen in cells or lysates may run through a third protein. Some results given as binding are weak or reduced against the parent protein; the word gives no strength. For part of these data: Sequences can lack the tags named with a protein. Blank lines part the entries; values can stand above or below the binder they belong to.

What was measured:
GST-P32 fusion protein [1] = biological target: T1, GST-P32 fusion protein (human, UniProt Q07021 74-282); assay: condition: 0.025–2.0 µg/400 µl (methods); 150-450 mM NaCl; pull-down; GST or GST-P32 on GST beads incubated with RNase H1 or its deletion mutants DL1, DL2; PBS or 50 mM Tris with 1 mM TCEP, NaCl 0-950 mM (150–450 mM for the deletion mutants), pH 6.0–10.0; room temperature; glutathione elution, Western blot; binding reduced above 150 mM NaCl and above pH 8; both purified
T1 construct: human P32 in the pGEX 3X vector; also called GST tagged P32; recombinant P32; source: E. coli, purified (GST beads); not shown: GST, N-terminal, kept
T1 sequence (looked up): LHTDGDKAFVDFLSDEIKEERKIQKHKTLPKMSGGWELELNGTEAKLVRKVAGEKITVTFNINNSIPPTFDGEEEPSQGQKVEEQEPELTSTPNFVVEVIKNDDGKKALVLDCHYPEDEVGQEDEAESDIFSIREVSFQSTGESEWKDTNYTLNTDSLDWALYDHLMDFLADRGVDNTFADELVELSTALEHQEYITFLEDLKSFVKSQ

[2] = biological target: HA-tagged human P32 (human) (UniProt Q07021); assay: co-IP; anti-HA antibody on extracts of Flag-H1 and Flag-H2 stable HEK lines and control HEK cells, all transfected with HA-P32 plasmid; western blots
[3] = biological target: HA-tagged human P32 (human) (UniProt Q07021); assay: co-IP; anti-HA antibody on extracts of control HeLa cells or HeLa cells transfected with HA-P32 plasmid; western blots with P32, RNase H1 or H2 antibodies
GST-P32 fusion protein [4] = biological target: T1, GST-P32 fusion protein; assay: pull-down; GST or GST-P32 on GST beads incubated with RNase H1 or its deletion mutants DL1, DL2; PBS or 50 mM Tris with 1 mM TCEP, NaCl 0-950 mM (150–450 mM for the deletion mutants), pH 6.0–10.0; room temperature; glutathione elution, Western blot; binding reduced above 150 mM NaCl and above pH 8; both purified

- binding (GST-P32 fusion protein [1]): no binding
B1: human RNase H1 deletion mutant DL1 (domain or fragment, UniProt O60930 74-286)
chain: SASPEVSEGHENQHGQESEAKASKRLREPLDGDGHESAEPYAKHMKPSVEPAPPVSRDTFSYMGDFVVVYTDGCCSSNGRRRPRAGIGVYWGPGHPLNVGIRLPGRQTNQRAEIHAACKAIEQAKTQNINKLVLYTDSMFTINGITNWVQGWKKNGWKTSAGKEVINKEDFVALERLTQGMDIQWMHVPGHSGFIGNEEADRLAREGAKQSED

- binding (GST-P32 fusion protein [1]): no binding
B2: human RNase H1 deletion mutant DL2 (domain or fragment, UniProt O60930 130-286)
chain: RDTFSYMGDFVVVYTDGCCSSNGRRRPRAGIGVYWGPGHPLNVGIRLPGRQTNQRAEIHAACKAIEQAKTQNINKLVLYTDSMFTINGITNWVQGWKKNGWKTSAGKEVINKEDFVALERLTQGMDIQWMHVPGHSGFIGNEEADRLAREGAKQSED

- binding [2]: binds
- binding [3]: binds
B3: endogenous human RNase H1 (enzyme, UniProt O60930 1-286)
chain: MSWLLFLAHRVALAALPCRRGSRGFGMFYAVRRGRKTGVFLTWNECRAQVDRFPAARFKKFATEDEAWAFVRKSASPEVSEGHENQHGQESEAKASKRLREPLDGDGHESAEPYAKHMKPSVEPAPPVSRDTFSYMGDFVVVYTDGCCSSNGRRRPRAGIGVYWGPGHPLNVGIRLPGRQTNQRAEIHAACKAIEQAKTQNINKLVLYTDSMFTINGITNWVQGWKKNGWKTSAGKEVINKEDFVALERLTQGMDIQWMHVPGHSGFIGNEEADRLAREGAKQSED

- binding [2]: binds
B4: N-terminal Flag-tagged human RNase H1 (enzyme, UniProt O60930 1-286)
chain: B3 chain

- binding (GST-P32 fusion protein [4]): binds
B5: N-terminal His-tagged human RNase H1 (recombinant) (enzyme, UniProt O60930 1-286, looked up)
chain: B3 chain
notes: human RNase H1, 286 residues (domains printed as aa1-72, aa73-135, aa136-286), in the pET 3C vector; also called His-H1; His-tag RNase H1; source: E. coli BL21 (DE3), lysed in 6 M guanidine, purified (Ni-NTA agarose)
